Experimental data taken from PubChem BioAssay AID1508624 (National Center for Advancing Translational Sciences (NCATS), 2021).
The whole screen tested about 48,000 compounds, of which about 120 (0.25%) were called active. The inconclusive results got no clear call from the source; some entries with a clear call stand among them for comparison. Calls come from the whole dose curve; as a rule, active = well fitted activation curve with a large enough effect; inconclusive = small, poorly fitted or top-dose-only effect, or another doubt; inactive = no such curve, though single readings can be large or run the other way. Where the call is inconclusive, the potency comes from a doubtful curve fit.

Experiment: Primary qHTS for Identification of Small Molecule Activators of Huntingtin-Antisense Promoter Activity; note: nearly all actives have a fitted effect of over 55% in size
Details: HEK293 HTT-AS promoter firefly luciferase reporter, 24 h; activity change, positive = activation: at 57.5 µM (top of the series), percent change from vehicle, -100% = no light unless noted
How it was run: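 Quantitative HTS used concentration series of up to 57.5 uM final on HEK293 luciferase reporter cells, 24 h at 37 degrees C. Readout was Dual-Glo firefly luminescence.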
Potency is the fitted concentration of half-maximal effect; tags give direction and shape of the fitted curve.

| Structure (SMILES) | Potency | activity change, positive = activation |
| --- | --- | --- |
| COCc1cc(C)nc2sc(C(=O)Nc3ccc(C(C)=O)cc3)c(N)c12 | inconclusive: 7940 nM [activator, partial curve, poor fit] |  |
| CCS(=O)(=O)N1CC(CC#N)(n2cc(-c3ncnc4[nH]ccc34)cn2)C1 | inconclusive: 30600 nM [activator, single point] |  |
| CS(=O)(=O)Nc1ccc(-c2nc3ccccc3s2)cc1 | inconclusive: 316 nM [activator, full curve, poor fit] |  |
| CCOc1ccc2nc(N3CCCC(C(=O)Nc4ccc(CC)cc4)C3)sc2c1 (stereo not drawn) | inconclusive: 2820 nM [activator, partial curve, poor fit] |  |
| CCc1ccc2oc(-c3cccc(NC(=O)COc4ccccc4Cl)c3)nc2c1 | inconclusive: 10000 nM [activator, partial curve] |  |
| COc1cc2c(cc1NC(=O)COc1ccc(Br)cc1)oc1ccccc12 | inconclusive: 178 nM [activator, partial curve, poor fit] |  |
| Clc1ccc2c(c1)CCc1cccnc1C2=C1CCNCC1 |  | inconclusive: -56.6% [activator] |
| Cc1ccc(N2CCN(Cc3nnc(-c4ccccc4F)o3)CC2)c(C)c1 | inactive |  |
| CCCOc1ccc(OC(=O)c2ccc(-c3ccc(CCC)cn3)cc2)cc1 | inconclusive: 562 nM [activator, full curve, poor fit] |  |
| CC(C)c1ccc(CNC(=O)c2ccc(N3CCCC3)c(NC(=O)NCc3ccccc3)c2)cc1 | inactive |  |
| COc1ccc(C2=CC(c3cc(Br)ccc3F)n3c(nc4ccccc43)N2)cc1 (stereo not drawn) | inconclusive: 2820 nM [activator, partial curve, poor fit] |  |
| O=C(COc1ccccc1Cl)Nc1ccc(-c2nc3ccccc3s2)cc1 | inconclusive: 224 nM [activator, full curve] |  |
| O=C(Cn1c(=O)oc2cc(S(=O)(=O)NCc3ccccc3)ccc21)Nc1cccc(F)c1 | inactive |  |
| COc1ccccc1CNc1nc2c(S(=O)(=O)c3ccc(C)c(C)c3)nnn2c2ccc(Cl)cc12 | inactive |  |
| COc1ccc(NC(=O)c2cc3ccccc3o2)c(OC)c1 | inconclusive: 1780 nM [activator, full curve, poor fit] |  |
| COCC(=O)n1nc(-c2ccco2)nc1NCc1ccccc1Cl | inconclusive: 2510 nM [activator, full curve, poor fit] |  |
| C=CCc1cccc2cc(-c3nc4ccc(C)cc4[nH]3)c(=O)oc12 | inconclusive: 1260 nM [activator, full curve] |  |
| COc1ccc(NC(=O)c2ccc(NC(=O)N3CCSc4ncccc43)cc2)cc1 | inconclusive: 2000 nM [activator, partial curve, poor fit] |  |
